# Laboratory results published in PubChem BioAssay AID686971 (National Center for Advancing Translational Sciences (NCATS), 2013).
# Among all 360,000 compounds or so, about 7,500 (2.1%) were called active. The shares of active, inactive and inconclusive entries below differ from those in the screen. Calls come from the whole dose curve; as a rule, active = well fitted cell-killing curve with a large enough effect; inconclusive = small, poorly fitted or top-dose-only effect, or effect the other way, or another doubt; inactive = no such curve, though single readings can be large or run the other way. No potency is given beside an inconclusive call; the fits are too rough.
# Assay: qHTS for induction of synthetic lethality in tumor cells producing 2HG: qHTS for the HT-1080-IDH1KD cell line;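 for activity, negative = toxicity: 0% = DMSO wells and -100% = cell-free medium wells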
# Conditions: HT-1080 IDH1 knockdown viability, ATP luminescence, 48 h; activity, negative = toxicity: at 46.1 µM (top of the series) unless noted
# How it was run: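 % activity derives from luminescence (CellTiter-Glo), normalised to DMSO and no-cell wells. HT-1080-IDH1KD cells, 750/well, had 48 h compound exposure at 37 °C.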
# Potency is the fitted concentration of half-maximal effect; tags give direction and shape of the fitted curve.
Compound,Potency,"activity, negative = toxicity"
COc1ccc(C(=O)c2cccc(C(=O)c3ccc(OC)c(C)c3)c2)cc1C,inactive,–
CCOc1ccc(C2CC=C(C(C)=O)CN2S(=O)(=O)c2ccc(C)cc2)cc1 (stereo unspecified),"inconclusive [cytotoxic, single point]",–
COc1ccc(NC(=O)C2Cc3c(-c4ccc(NC(C)=O)cc4)ccnc3O2)cn1 (stereo unspecified),"inconclusive [cytotoxic, partial curve]",–
C/C(=N\Nc1ccccc1)c1cccc(N)c1,inactive,–
COc1cc(-c2coc3c(C(=O)NCc4ccc(C(F)(F)F)cc4)cccc23)ccc1O,active: 25.9 µM,–
O=C(c1cc(C2CC2)nn1-c1ccccc1)N1CCN(c2ccc(O)cc2)CC1,inactive,–
N#C/C(=C\c1ccco1)C(=O)Nc1ccc(S(N)(=O)=O)cc1,"inconclusive [cytotoxic, single point]",–
CC(=O)Nc1ccc(CNc2nc3cc(-c4ccccc4C)sc3c(=O)n2C)cc1,"inconclusive [cytotoxic, single point]",–
O=C(NCCCn1ccnc1)C(=O)c1c[nH]c2ccccc12,"inconclusive [cytotoxic, single point]",–
O=C(COC(=O)Cc1ccsc1)NCc1ccc(Cl)cc1,–,inconclusive: -31.7% [cytotoxic]
O=C(NC12CC3CC(CC(C3)C1)C2)c1ccc([N+](=O)[O-])o1,"inconclusive [cytotoxic, single point]",–
CN(CC(=O)Nc1ccc(F)cc1)C(=O)c1cccc(NS(=O)(=O)c2ccccc2)c1,inactive,–
CC1Cc2ccccc2N1CC(=O)NC(c1ccccc1)c1ccccc1 (stereo unspecified),"inconclusive [cytotoxic, partial curve, poor fit]",–
Cc1c(Cl)cccc1NC(=S)N1CCN(Cc2ccc3c(c2)OCO3)CC1,inactive,–
CC(=O)Nc1cccc(-c2ccnc3c2CC(C(=O)NCc2ccc(N4CCN(C)CC4)cc2)O3)c1 (stereo unspecified),inactive,–
CCC1CCCCN1S(=O)(=O)c1ccc(C(=O)Nc2nnc(-c3cccs3)o2)cc1 (stereo unspecified),active: 14.1 µM,–
Cc1ccc(C(C)(C)C)cc1S(=O)(=O)Nc1cccc(C(=O)N2CCN(c3ccccn3)CC2)c1,inactive,–
O=C(O)CC(NC(=O)C12CC3CC(CC(C3)C1)C2)c1ccc(OC2CCCC2)cc1 (stereo unspecified),"inconclusive [cytotoxic, single point]",–
CCOC(=O)Cn1ccc(NC(=O)COc2ccc(F)cc2F)n1,inactive,–
O=C(NNc1nc(=O)c2cccnc2s1)c1ccccc1O,"inconclusive [cytotoxic, full curve]",–
CCn1c(O)c(C=Nc2ccccc2)n(-c2ccccc2)c1=S,"inconclusive [cytotoxic, full curve, poor fit]",–
O=C(N/N=C/c1ccccn1)c1cccc(S(=O)(=O)Nc2ccccc2Cl)c1,–,inconclusive: -30.4% [cytotoxic]
Cc1cc(C)cc(C(=O)NCC(=O)OCC(=O)c2cc(C)n(CC(F)(F)F)c2C)c1,inactive,–

Compound,Potency,"activity, negative = toxicity"
COc1ccc(CCN2CC(C(=O)NCCCc3ccncc3)CCC2=O)cc1 (stereo unspecified),inactive,–
Oc1cc2c(cc1O)[C@@H](c1ccccc1)CNCC2,"inconclusive [cytotoxic, single point]",–
CN1C(=O)/C(=C/c2ccccc2F)Sc2ccc(C(=O)NCC3CCCO3)cc21 (stereo unspecified),"inconclusive [cytotoxic, single point]",–
CC1CCC(C(C)C)C(OCC(O)CN2CCN(Cc3ccccc3)CC2)C1 (stereo unspecified),"inconclusive [cytotoxic, single point]",–
O=[N+]([O-])c1ccc(Sc2cc[n+]([O-])c3ccccc23)c([N+](=O)[O-])c1,active: 18.4 µM,–
COc1cc(NC(=O)c2ccccc2Cl)c2ncccc2c1,"inconclusive [cytotoxic, single point]",–
CCOc1cccc(/C=N/Nc2ccc(S(=O)(=O)N(CC)CC)cn2)c1O,active: 2.59 µM,–
COc1ccc(N/N=C(C)/C(=N/O)C(=O)Nc2ccccc2)cc1,"inconclusive [cytotoxic, partial curve]",–
N#Cc1c(-c2ccccc2)nc(SCc2nc(N)nc(N3CCCCC3)n2)[nH]c1=O,"inconclusive [cytotoxic, single point]",–
CCOC(=O)c1nc(N/N=C/c2ccccc2)sc1Br,"inconclusive [cytotoxic, single point]",–
Cc1ccc(OCc2cc(C(=O)NCCc3cccnc3)no2)cc1C,"inconclusive [cytotoxic, single point]",–
Cc1ccccc1C(=O)NNC(=O)C(=O)N1CCCCC1,inactive,–
Cc1nn(-c2ccccc2)c(N)c1N=Nc1ccc(Cl)cc1,"inconclusive [cytotoxic, single point]",–
CCN(CC(=O)Nc1ccc(OC)cc1)CC(=O)Nc1sc2c(c1C(=O)OC)CCCC2,"inconclusive [cytotoxic, single point]",–
CC1CCN(C(=S)NCCc2ccccc2)CC1,"inconclusive [cytotoxic, single point]",–
Cc1cccc(NNC(=O)C2CCC2)c1,active: 7.31 µM,–
O=C(COC(=O)c1ccc(NS(=O)(=O)c2cccs2)cc1O)NCc1ccccc1,active: 3.66 µM,–
CCCOc1ccc(C(=O)C(CCC(CNCC)C(=O)c2ccc(OCCC)cc2)CNCC)cc1 (stereo unspecified),"inconclusive [cytotoxic, single point]",–
CC1(C)Oc2ccc3ccc(=O)oc3c2/C(=C/Nc2cccc(O)c2)C1=O,"inconclusive [cytotoxic, single point]",–
COc1ccc(C2CC(c3ccccc3)n3nc(NC(=O)c4cccs4)nc3N2)cc1 (stereo unspecified),inactive,–
COc1cccc2c3cccc(OC)c3c3[nH]cnc3c12,active: 20.6 µM,–
C=CCNc1nc(Nc2ccc(OC)c(OC)c2)c2sc(-c3ccccc3)cc2n1,active: 5.8 µM,–
O=C(c1ccccc1-c1nc(-c2ccc(Cl)cc2)no1)N1CCCC1,"inconclusive [cytotoxic, single point]",–
